The other results are listed elsewhere or left out.
Experiments:
Assay in all cases: glycan array binding signal (z-score within array); higher = stronger binding
Conditions in all cases: glycan notation: IUPAC condensed, linker removed
[1] = molecular target: Gal(b1-4)GlcNAc(b1-3)Gal(b1-4)Glc
In short: (§1)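 From the Consortium for Functional Glycomics database, 3228 arrays were curated, keeping only those whose protein sequence was available. Binding is given as a within-array Z-score averaged across arrays sharing a protein sequence and across linkers. Negative Z-scores can be read as non-binding.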

[2] = molecular target: Gal(b1-4)GlcNAc(b1-3)Gal(b1-4)GlcNAc
In short: as §1

[3] = molecular target: Gal(b1-4)GlcNAc(b1-3)Gal(b1-4)GlcNAc(b1-2)Man(a1-3)[Gal(b1-4)GlcNAc(b1-3)Gal(b1-4)GlcNAc(b1-2)Man(a1-6)]Man(b1-4)GlcNAc(b1-4)GlcNAc
In short: as §1

[4] = molecular target: Gal(b1-4)GlcNAc(b1-3)Gal(b1-4)GlcNAc(b1-2)Man(a1-3)[Gal(b1-4)GlcNAc(b1-3)Gal(b1-4)GlcNAc(b1-2)Man(a1-6)]Man(b1-4)GlcNAc(b1-4)[Fuc(a1-6)]GlcNAc
In short: as §1

[5] = molecular target: Gal(b1-4)GlcNAc(b1-3)Gal(b1-4)GlcNAc(b1-2)[Gal(b1-4)GlcNAc(b1-3)Gal(b1-4)GlcNAc(b1-6)]Man(a1-6)[Gal(b1-4)GlcNAc(b1-3)Gal(b1-4)GlcNAc(b1-2)Man(a1-3)]Man(b1-4)GlcNAc(b1-4)GlcNAc
In short: as §1

[6] = molecular target: Gal(b1-4)GlcNAc(b1-3)Gal(b1-4)GlcNAc(b1-2)[Gal(b1-4)GlcNAc(b1-3)Gal(b1-4)GlcNAc(b1-6)]Man(a1-6)[Gal(b1-4)GlcNAc(b1-3)Gal(b1-4)GlcNAc(b1-2)Man(a1-3)]Man(b1-4)GlcNAc(b1-4)[Fuc(a1-6)]GlcNAc
In short: as §1

[7] = molecular target: Gal(b1-4)GlcNAc(b1-3)Gal(b1-4)GlcNAc(b1-3)Gal(b1-4)GlcNAc
In short: as §1

[8] = molecular target: Gal(b1-4)GlcNAc(b1-3)Gal(b1-4)GlcNAc(b1-3)Gal(b1-4)GlcNAc(b1-2)Man(a1-3)[Gal(b1-4)GlcNAc(b1-3)Gal(b1-4)GlcNAc(b1-3)Gal(b1-4)GlcNAc(b1-2)Man(a1-6)]Man(b1-4)GlcNAc(b1-4)GlcNAc
In short: as §1

[9] = molecular target: Gal(b1-4)GlcNAc(b1-3)Gal(b1-4)GlcNAc(b1-3)Gal(b1-4)GlcNAc(b1-2)Man(a1-3)[Gal(b1-4)GlcNAc(b1-3)Gal(b1-4)GlcNAc(b1-3)Gal(b1-4)GlcNAc(b1-2)Man(a1-6)]Man(b1-4)GlcNAc(b1-4)[Fuc(a1-6)]GlcNAc
In short: as §1

[10] = molecular target: Gal(b1-4)GlcNAc(b1-3)Gal(b1-4)GlcNAc(b1-3)Gal(b1-4)GlcNAc(b1-2)[Gal(b1-4)GlcNAc(b1-3)Gal(b1-4)GlcNAc(b1-3)Gal(b1-4)GlcNAc(b1-6)]Man(a1-6)[Gal(b1-4)GlcNAc(b1-3)Gal(b1-4)GlcNAc(b1-3)Gal(b1-4)GlcNAc(b1-2)Man(a1-3)]Man(b1-4)GlcNAc(b1-4)[Fuc(a1-6)]GlcNAc
In short: as §1

[11] = molecular target: Gal(b1-4)GlcNAc(b1-3)Gal(b1-4)GlcNAc(b1-3)Gal(b1-4)GlcNAc(b1-3)Gal(b1-4)GlcNAc(b1-2)Man(a1-3)[Gal(b1-4)GlcNAc(b1-3)Gal(b1-4)GlcNAc(b1-3)Gal(b1-4)GlcNAc(b1-3)Gal(b1-4)GlcNAc(b1-2)Man(a1-6)]Man(b1-4)GlcNAc(b1-4)GlcNAc
In short: as §1

[12] = molecular target: Gal(b1-4)GlcNAc(b1-3)Gal(b1-4)GlcNAc(b1-3)Gal(b1-4)GlcNAc(b1-3)Gal(b1-4)GlcNAc(b1-2)Man(a1-3)[Gal(b1-4)GlcNAc(b1-3)Gal(b1-4)GlcNAc(b1-3)Gal(b1-4)GlcNAc(b1-3)Gal(b1-4)GlcNAc(b1-2)Man(a1-6)]Man(b1-4)GlcNAc(b1-4)[Fuc(a1-6)]GlcNAc
In short: as §1

[13] = molecular target: Gal(b1-4)GlcNAc(b1-3)Gal(b1-4)GlcNAc(b1-3)Gal(b1-4)GlcNAc(b1-3)Gal(b1-4)GlcNAc(b1-2)[Gal(b1-4)GlcNAc(b1-3)Gal(b1-4)GlcNAc(b1-3)Gal(b1-4)GlcNAc(b1-3)Gal(b1-4)GlcNAc(b1-6)]Man(a1-6)[Gal(b1-4)GlcNAc(b1-3)Gal(b1-4)GlcNAc(b1-3)Gal(b1-4)GlcNAc(b1-3)Gal(b1-4)GlcNAc(b1-2)Man(a1-3)]Man(b1-4)GlcNAc(b1-4)[Fuc(a1-6)]GlcNAc
In short: as §1

[14] = molecular target: Gal(b1-4)GlcNAc(b1-3)Gal(b1-4)GlcNAc(b1-3)Gal(b1-4)GlcNAc(b1-3)Gal(b1-4)GlcNAc(b1-3)Gal(b1-4)GlcNAc(b1-2)Man(a1-3)[Gal(b1-4)GlcNAc(b1-3)Gal(b1-4)GlcNAc(b1-3)Gal(b1-4)GlcNAc(b1-3)Gal(b1-4)GlcNAc(b1-3)Gal(b1-4)GlcNAc(b1-2)Man(a1-6)]Man(b1-4)GlcNAc(b1-4)GlcNAc
In short: as §1

[15] = molecular target: Gal(b1-4)GlcNAc(b1-3)Gal(b1-4)GlcNAc(b1-3)Gal(b1-4)GlcNAc(b1-3)Gal(b1-4)GlcNAc(b1-3)Gal(b1-4)GlcNAc(b1-2)Man(a1-3)[Gal(b1-4)GlcNAc(b1-3)Gal(b1-4)GlcNAc(b1-3)Gal(b1-4)GlcNAc(b1-3)Gal(b1-4)GlcNAc(b1-3)Gal(b1-4)GlcNAc(b1-2)Man(a1-6)]Man(b1-4)GlcNAc(b1-4)[Fuc(a1-6)]GlcNAc
In short: as §1

[16] = molecular target: Gal(b1-4)GlcNAc(b1-3)Gal(b1-4)GlcNAc(b1-3)Gal(b1-4)GlcNAc(b1-3)Gal(b1-4)GlcNAc(b1-3)Gal(b1-4)GlcNAc(b1-2)[Gal(b1-4)GlcNAc(b1-3)Gal(b1-4)GlcNAc(b1-3)Gal(b1-4)GlcNAc(b1-3)Gal(b1-4)GlcNAc(b1-3)Gal(b1-4)GlcNAc(b1-6)]Man(a1-6)[Gal(b1-4)GlcNAc(b1-3)Gal(b1-4)GlcNAc(b1-3)Gal(b1-4)GlcNAc(b1-3)Gal(b1-4)GlcNAc(b1-3)Gal(b1-4)GlcNAc(b1-2)Man(a1-3)]Man(b1-4)GlcNAc(b1-4)[Fuc(a1-6)]GlcNAc
In short: as §1

[17] = molecular target: Gal(b1-4)GlcNAc(b1-3)Gal(b1-4)GlcNAc(b1-3)Gal(b1-4)GlcNAc(b1-3)Gal(b1-4)GlcNAc(b1-3)Gal(b1-4)GlcNAc(b1-3)Gal(b1-4)GlcNAc(b1-2)Man(a1-3)[Gal(b1-4)GlcNAc(b1-3)Gal(b1-4)GlcNAc(b1-3)Gal(b1-4)GlcNAc(b1-3)Gal(b1-4)GlcNAc(b1-3)Gal(b1-4)GlcNAc(b1-3)Gal(b1-4)GlcNAc(b1-2)Man(a1-6)]Man(b1-4)GlcNAc(b1-4)GlcNAc
In short: as §1

[18] = molecular target: Gal(b1-4)GlcNAc(b1-3)Gal(b1-4)GlcNAc(b1-3)GalNAc
In short: as §1

[19] = molecular target: Gal(b1-4)GlcNAc(b1-3)Gal(b1-4)GlcNAc(b1-3)[Gal(b1-4)GlcNAc(b1-3)Gal(b1-4)GlcNAc(b1-6)]GalNAc
In short: as §1

B1: Na-CTL-1 (Necator americanus) (protein)
chain: MQRSFLLLLVVLAGAWAVNTTIPLKLMGGFTPMKYQCVGRVSDIWADVLFLIESSDMITKSGFRQVIAFITATTKKMTIGQDEKQTRVGFITYGEEAKLIYDLDHWRSTEKLSDLVQKIPYVKSSGTNIAAAIALANKVFNSPTHRPNVPKVMVIVANGLKKGSQNPIPVATAFKDFGGIIITIEYTQYDNIQVPILKKIASEGYNIRSNDEDFSVRTLTNMLLQANCFCPDHYVPFRVNNPEFGCFVTAKIPSMWRDAAEMCRAVEEGKLVKVENEEKAAFIMKLVGPKKEAWIGLRYYGNKFQWTDGTKLNADDFNLWPEDIKELNGPHCVSMYQDQKDKKYYWRAGKCLEDMRYVCEVQPCSASNYCSEPVFMYRQKHRALLPAPPPPPN
glycan array binding signal (z-score) [1]: 0.514
glycan array binding signal (z-score) [2]: -0.36
glycan array binding signal (z-score) [3]: 0.037
glycan array binding signal (z-score) [4]: 0.009
glycan array binding signal (z-score) [5]: 2.03
glycan array binding signal (z-score) [6]: 0.121
glycan array binding signal (z-score) [7]: 0.293
glycan array binding signal (z-score) [8]: 0.567
glycan array binding signal (z-score) [9]: 0.418
glycan array binding signal (z-score) [10]: 0.481
glycan array binding signal (z-score) [11]: 0.487
glycan array binding signal (z-score) [12]: 2.87
glycan array binding signal (z-score) [13]: 0.461
glycan array binding signal (z-score) [14]: 0.78
glycan array binding signal (z-score) [15]: 0.499
glycan array binding signal (z-score) [16]: 1.59
glycan array binding signal (z-score) [17]: 0.866
glycan array binding signal (z-score) [18]: -0.022
glycan array binding signal (z-score) [19]: -0.05

— the supplement of paper PMC8728848
